Patent US20240425574A1, “ANTI-PDGF-B ANTIBODIES AND PHARMACEUTICAL COMPOSITION THEREOF” (Regeneron Pharmaceuticals, Inc., priority 2021, published 2024)

What was measured:
[1] = system: Monkey PDGF-BB; assay: HEK293/SRE-Luc/hPDGFRβ luciferase bioassay; type: cell-based; conditions: 500 pM mfPDGFBB
Protocol: (§1) In order to determine the activity of the anti PDGF-B antibodies, bioassays were performed using PDGF-BB. For performing the bioassay, 20,000 HEK293/SRE-Luc/hPDGFRβ single cell sorted cells/well were plated in 0.1% FCS Optimem overnight. […] Plates were incubated for 5.5 hours at 37° C. and luminescence was measured using One-Glo (Promega).

[2] = target: Mouse PDGF-BB (Mus musculus, UniProt P31240); assay: HEK293/SRE-Luc/hPDGFRβ luciferase bioassay; type: cell-based; conditions: 600 pM mPDGFBB
Mouse PDGF-BB, sequence (P31240 82-190 limits assumed): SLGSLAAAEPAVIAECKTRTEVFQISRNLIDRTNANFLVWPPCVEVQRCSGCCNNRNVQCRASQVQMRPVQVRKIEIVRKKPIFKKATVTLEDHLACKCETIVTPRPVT
Protocol: as §1

[3] = target: rat PDGF-BB (Rattus norvegicus, UniProt Q05028); assay: Biacore T200/MASS-2 binding kinetics at 25° C. (Example 14)
rat PDGF-BB, sequence (Q05028 74-182 limits assumed): as the sequence (P31240 82-190 limits assumed) above, with I83V, I102V counted along it
Protocol: The equilibrium dissociation constant (KD) for PDGF-BB binding to different PDGF-BB monoclonal antibodies (mAbs) was determined using a real-time surface plasmon resonance biosensor using a Biacore T200 or MASS-2 instrument. All binding studies were performed in 10 mM HEPES, 300 mM NaCl, and 0.05% v/v Surfactant Tween-20, pH 7.4 (HBS-P) running buffer at 25° C. The sensor chip surface was first derivatized by amine coupling with human Fc specific mouse mAb (REGN2567) to capture different PDGF-BB mAbs. […] At the end of each cycle, the PDGF-BB mAb captured surface was regenerated using a 10-12 seconds injection of 20 mM phosphoric acid.
The association rate (ka) and dissociation rate (kd) were determined by fitting the real-time binding sensorgrams to a 1:1 binding model with mass transport limitation using Scrubber 2.0c curve-fitting software. Binding dissociation equilibrium constant (KD) and dissociative half-life (t½) were calculated from the kinetic rates as: […]

[4] = system: hypoxia/sugen PAH mice; assay: Hypoxia/Sugen PAH mice, therapeutic treatment (Study 1); type: in vivo, mouse
Protocol: For the first study, 14 to 16 weeks old male humanized PDGFRβ^hu-hu mice, (MAID #1639) were used. Mice were separated into treatment groups by weight such that starting body weights were similar among different groups. […] Mice in hypoxia chamber were given VEGF receptor inhibitor Sugen5146 at 20 mg/kg subcutaneously once a week for 6 weeks. The mice were administered antibodies starting on day 21 for 3 weeks as outlined in Table 11. […] Mice were anesthetized with isoflurane and were kept at approximately 37° C. using a heated platform (Heated Hard Pad 1, Braintree Scientific) and circulating heated water pump (T/Pump Classic, Gaymar Industries). The neck area for each mouse was prepared for surgery by depilating over the right common Carotid artery and right Jugular vein. An incision was made, and the right Jugular vein was isolated with care as to not damage the Carotid artery and/or the Vagus nerve. A piece of 5-0 silk suture was placed under the isolated Jugular vein to allow for retraction of the vessel cranially, then a 30-gauge needle was used to introduce a hole into the Jugular vein. A pressure catheter (Micro-tip catheter transducer SPR-1000, Millar Instruments, Inc.) was inserted into the opening of the Jugular vein and advanced past the right atrium into the right ventricle. The catheter was connected to pressure/volume instrument (MPVS-300, Millar Instruments, Inc.) that measured heart rate as well as both diastolic and systolic right ventricular pressures. These parameters were digitally acquired using a data acquisition system (PowerLab 4/35, AD Instruments). LabChart […].0 software (AD Instruments) was used to analyze right ventricular pressures. […] The parameters analyzed were right ventricular systolic pressures (RVSP), heart rate (HR) and rate of right ventricular pressure rise (dP/dt max). After the in vivo hemodynamic measurements, animals were euthanized by exsanguinations under anesthesia and then RV free wall, left ventricle (LV) and septum tissue were harvested and weighted. RV hypertrophy was calculated by Fulton index as the weight ratio of RV and (LV+septum). Then, RV tissue was saved frozen (-80° C.) for biochemical analyses. Hematocrit was obtained for each mouse immediately after euthanasia.

[5] = system: PDGFRa and PDGFRb; assay: Flow cytometry of PDGFRa/PDGFRb surface expression in PASMC; type: cell-based, human; conditions: antibody:PDGF-BB 10-1 nM, 24 hours
[6] = target: human PDGF-BB (Homo sapiens, UniProt P01127); conditions: 1 nM PDGF-BB, PDGF-AB & PDGF-AB/BB (3:1); anti-PDGF-B antibodies at 60 seconds
human PDGF-BB, sequence (P01127 82-190 limits assumed): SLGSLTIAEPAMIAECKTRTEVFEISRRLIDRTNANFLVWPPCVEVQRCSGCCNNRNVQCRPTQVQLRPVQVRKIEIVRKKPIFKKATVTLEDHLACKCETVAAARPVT

[7] = Hypoxia/Sugen Mice - Therapeutic, dose mg/kg: H4H13145P 25, Macitentan 30, REGN2176 25

B1: H4H13145P: fully human anti-PDGF-B mAb, human IgG4 Fc; HCVR/LCVR SEQ ID NOs: 2/10, HC/LC 18/20 (antibody)
heavy: QVQLVQSGTEVKKPGASVKVSCKASGYTYGAYAISWVRQAPGQGLEWMGWISAYNGNTNYAQKFQDRVTMTTDTSTNTAYMELRGLKSDDTAVYFCARAWNSFDYWGQGTLVTVSSASTKGPSVFPLAPCSRSTSESTAALGCLVKDYFPEPVTVSWNSGALTSGVHTFPAVLQSSGLYSLSSVVTVPSSSLGTKTYTCNVDHKPSNTKVDKRV[human IgG4 Fc with S228P (EU numbers) left out here]
light: DIQMTQSPSSLSASVGDRVTITCQASQDIRKNLNWYQQKPGKAPKLLISDASTLETGVPSRFSGSGSGTDFTFTISSLQPEDIAKYYCQQYYNLPFTFGPGTKVDIKRTVAAPSVFIFPPSDEQLKSGTASVVCLLNNFYPREAKVQWKVDNALQSGNSQESVTEQDSKDSTYSLSSTLTLSKADYEKHKVYACEVTHQGLSSPVTKSFNRGEC
Which results are given for B1?
IC51 [1]: 3.2E−10; (%) Inhibition [2]: 98%; 15 nM rPDGF-BB Bound (RU) ([3]; 15 nM rPDGF-BB over captured mAb): 35.3 RU; ka ([3]; rat PDGF-BB): 2.25e+06 M⁻¹ s⁻¹; kd ([3]; rat PDGF-BB): 0.000282 s⁻¹; body weight loss caused by hypoxia ([4]; 25 mg/kg SC 2x/week from day 21, versus isotype control, day 42): significantly attenuated; reduction of right ventricular systolic pressure elevation ([4]; 25 mg/kg SC 2x/week from day 21, week 6, versus isotype control): 9 mmHg; % reduction in RV hypertrophy [4, 7]: 35%; Reduction in RVSP [4, 7]: 9 mmHg; PDGFRb cell surface fluorescent signal [5]: prevented the observed loss in PDGFRb fluorescent signal; inhibition of PDGF mediated calcium flux in words [6]: complete inhibition
